Experimental data reported in ChEMBL document CHEMBL4888484, “Replenishing the malaria drug discovery pipeline: Screening and hit evaluation of the MMV Hit Generation Library 1 (HGL1) against asexual blood stage Plasmodium falciparum ,using a nano luciferase reporter read-out” (2022).
In all, about 150,000 compounds went through this assay and about 540 (0.36%) showed an effect of 50% or more. The list shows a part of the results.

The compounds below were run on Plasmodium falciparum (assay: Primary screen in NF54 nanoGlo assay, in single point, at 2uM, 72h; a lower Z score goes with more inhibition). Settings: timepoint 72 hour.
Type: functional, Erythrocyte

CCCc1nc2cc(CCC(=O)Nc3cccc(Cl)c3)ccc2[nH]1 and Cc1cc(Cl)ccc1/N=C(\NCCc1c(C)nn(C)c1C)NC(=O)c1ccc(F)cc1 are the same in “% Inhibition” value: -3% for the first, -3% for the second.

Going from O=C(Nc1nccs1)c1cc2c(s1)CCCC2 to Cc1noc2ncnc(N[C@H]3CCCc4sccc43)c12, the “% Inhibition” value rises from -13% to -2%.

First: c1cn(CCCn2ccnc2-c2ccc([C@@H]3CCCCO3)o2)cn1
Second: CCCc1ccc(-c2nccn2C[C@H]2CN(C(C)=O)CCO2)o1
The “% Inhibition” value of the first is higher: 6% for the first, -6% for the second.

Going from Cc1nc(-c2nc(C[C@H]3CNCCO3)n(C3CCCCC3)n2)cs1 to Cn1ncc2c1C[C@@H](c1nc(-c3cncs3)no1)CC2, the “% Inhibition” value rises from -8% to -4%.

Going from CCC(CC)(CNc1ccnc2cccnc12)C(=O)O to CC(C)(C)OC(=O)N1CCC(CC(=O)NCc2nccnc2-c2cccs2)CC1, the “% Inhibition” value rises from -8% to -6%.

First: CCN(Cc1ccco1)C(=O)c1ccc2noc(-c3ccccc3)c2c1
Second: COc1ncccc1N(C)C(=O)c1cccc(-c2ccoc2)c1
The “% Inhibition” value of the first is higher: 0% for the first, -7% for the second.

First: NC(=O)N1CCN2C(=O)N(Cc3cccnc3C(F)(F)F)C(=O)[C@@H]2C1
Second: O=C(Cc1ccccc1Cl)N1CC(OCC(F)(F)F)C1
The “% Inhibition” value of the first is higher: 17% for the first, 8% for the second.

Compared with O=S(=O)(c1ccc(-c2cc(C(F)(F)F)on2)o1)N1CCCCCC1, CCn1c(CN2CCCCCC2)nc2cc(S(=O)(=O)N3CCCCC3)ccc21 is lower in “% Inhibition” value: -4% for the first, -7% for the second.

Going from CCC(C)C(NC(=O)NCCCC1C=NNC1=O)C(F)(F)F (stereo not drawn) to CC(CN1CCCC1=O)NC(=O)C(C)CCc1ccccc1F (stereo not drawn), the “% Inhibition” value falls from 18% to -6%.

Going from Cc1cnc2cc(C(=O)N[C@H]3CCC[C@H]3CO)ccn12 to CNC[C@H]1CCCN1C(=O)c1cc2ccc(C)cc2nc1C, the “% Inhibition” value rises from -6% to 1%.

First: CC1(C)C[C@@]1(NC(=O)NC1CCC(OC(F)F)CC1)c1ccccc1 (stereo partly drawn)
Second: O=C(CCCc1ccccc1)N1CCC(n2cnnc2C2CC2)CC1
The “% Inhibition” value of the first is lower: -8% for the first, -4% for the second.

Compared with CC(=O)Nc1ccc(S(=O)(=O)N2CCOC3(CCOCC3)C2)cc1, CC(=O)Nc1nc(C(=O)N2CC3(CCOCC3)[C@@H]2C2CC2)cs1 is lower in “% Inhibition” value: 6% for the first, -2% for the second.

Going from COc1cccc(S(=O)(=O)N2CCc3nc(NC(=O)c4ccc(F)c(F)c4)sc3C2)c1 to O=C(c1nc2ccccc2s1)N1CCC[C@H](c2cc(F)ccc2F)C1, the “% Inhibition” value falls from 5% to -16%.

Compared with Cc1cc(C(=O)N2CC(C(=O)Nc3ncc(C)s3)C2)no1, CC[C@@H](COC)Nc1ncnc2sc(C(=O)N3CCCC3)c(C)c12 is lower in “% Inhibition” value: 3% for the first, -1% for the second.

First: CCc1nc(CN2C(=O)COc3ccc(S(=O)(=O)N4CCN(CC)CC4)cc32)no1
Second: CCc1nc(CN2CCOCC2)n(-c2ccc(C(F)(F)F)cc2)n1
The “% Inhibition” value of the first is higher: -3% for the first, -7% for the second.

Going from COc1ccc(-c2cc(C(=O)N3CCc4[nH]cnc4C3)[nH]n2)cc1 to CC1CCN(C(=O)[C@H]2CCc3ncc(-c4ccc(F)cc4)n3C2)CC1, the “% Inhibition” value falls from -4% to -7%.

First: Cc1nc(N(C)C)nc(-c2ccccc2CO)c1C
Second: Cc1ccccc1C(=O)Nc1cc(-c2nnc(C3CC3)o2)sc1C
The “% Inhibition” value of the first is lower: -3% for the first, -2% for the second.

First: NS(=O)(=O)c1ccc(CCNC(=O)[C@@H]2CCCN3CCCC[C@H]23)cc1
Second: Cc1ccc(CCNC(=O)c2ccccc2N2CCC(=O)NC2=O)s1
The “% Inhibition” value of the first is lower: -4% for the first, 4% for the second.

Going from Cc1c2c(=O)n(-c3nc4ccccc4s3)n(Cc3ccc(F)cc3)c2cc(=O)n1CCCN1CCOCC1 to CC(C)n1c(=O)c(-c2ccc(C(=O)NCc3ccc(N4CCOCC4)cc3)cc2)nc2cccnc21, the “% Inhibition” value falls from 32% to -5%.

First: OC[C@H]1CCCN1Cc1nnc(-c2ccc(Br)cc2)o1
Second: OCc1nnc(NCc2ccc(OCc3ccccc3)c(OCc3ccccc3)c2)o1
The “% Inhibition” value of the first is higher: 5% for the first, -9% for the second.

Going from Cn1cccc1-c1cc2n(n1)CCC(=O)N2CCCC(=O)NCCN1CCOCC1 to CN(CCn1ccnc1)Cc1noc2c1CCCC2, the “% Inhibition” value rises from -8% to 1%.

Compared with CN1C[C@@H](c2nc(Cn3cc(Br)cn3)no2)NCC1=O, Cc1nc(-c2cnn(C)c2)oc1C(=O)NCCS(=O)(=O)C(C)C is higher in “% Inhibition” value: -7% for the first, -5% for the second.

Going from CCN(C(=O)c1cccc(-c2cc(F)ccc2C(C)=O)c1)[C@H]1COC[C@@H]1O to COc1ccccc1NC(=O)C1C(=O)NC23CCCCC2C1c1ccccc1O3 (stereo not drawn), the “% Inhibition” value falls from -5% to -8%.

Going from CCN(CC)c1nc(N)cc(N2CC[C@@H](O)C2)n1 to Cc1ccc(NC(=O)CCOC2CCOCC2)c(C)n1, the “% Inhibition” value rises from -13% to -5%.

Going from CC1=NO[C@@H](CNS(=O)(=O)c2cc(F)cc(Cl)c2)C1 to CC(C)C1=NO[C@H](C(=O)NCCNS(C)(=O)=O)C1, the “% Inhibition” value falls from 10% to -1%.

Going from CC[C@H](NCc1sccc1Cl)c1c(C)nn(C)c1C to CCNC(=O)[C@@H]1CC[C@](C)(C(=O)NCCn2cnnn2)C1(C)C, the “% Inhibition” value falls from 12% to -2%.

Going from Cc1[nH]ncc1C(=O)N1CCC(F)(F)C1 to O=C(N[C@H](c1ncccn1)C1CC1)c1ccc(OC(F)F)cc1F, the “% Inhibition” value rises from -18% to -11%.

Going from CCCc1nc2cc(CCC(=O)Nc3cccc(Cl)c3)ccc2[nH]1 to Cc1cc(Cl)ccc1/N=C(\NCCc1c(C)nn(C)c1C)NC(=O)c1ccc(F)cc1, the Z score rises from 0.4 to 0.65.

First: O=C(Nc1nccs1)c1cc2c(s1)CCCC2
Second: Cc1noc2ncnc(N[C@H]3CCCc4sccc43)c12
The Z score of the first is higher: 1.11 for the first, 0.18 for the second.

Compared with c1cn(CCCn2ccnc2-c2ccc([C@@H]3CCCCO3)o2)cn1, CCCc1ccc(-c2nccn2C[C@H]2CN(C(C)=O)CCO2)o1 is higher in Z score: -1.06 for the first, 0.71 for the second.

Going from Cc1nc(-c2nc(C[C@H]3CNCCO3)n(C3CCCCC3)n2)cs1 to Cn1ncc2c1C[C@@H](c1nc(-c3cncs3)no1)CC2, the Z score falls from 1.61 to 0.68.

Going from CCC(CC)(CNc1ccnc2cccnc12)C(=O)O to CC(C)(C)OC(=O)N1CCC(CC(=O)NCc2nccnc2-c2cccs2)CC1, the Z score rises from 0.98 to 1.18.

Compared with CCN(Cc1ccco1)C(=O)c1ccc2noc(-c3ccccc3)c2c1, COc1ncccc1N(C)C(=O)c1cccc(-c2ccoc2)c1 is higher in Z score: 0 for the first, 0.59 for the second.

Compared with NC(=O)N1CCN2C(=O)N(Cc3cccnc3C(F)(F)F)C(=O)[C@@H]2C1, O=C(Cc1ccccc1Cl)N1CC(OCC(F)(F)F)C1 is higher in Z score: -2.14 for the first, -1.19 for the second.

First: O=S(=O)(c1ccc(-c2cc(C(F)(F)F)on2)o1)N1CCCCCC1
Second: CCn1c(CN2CCCCCC2)nc2cc(S(=O)(=O)N3CCCCC3)ccc21
The Z score of the first is lower: 0.59 for the first, 1.02 for the second.

First: CCC(C)C(NC(=O)NCCCC1C=NNC1=O)C(F)(F)F (stereo not drawn)
Second: CC(CN1CCCC1=O)NC(=O)C(C)CCc1ccccc1F (stereo not drawn)
The Z score of the first is lower: -2.23 for the first, 0.72 for the second.

Going from Cc1cnc2cc(C(=O)N[C@H]3CCC[C@H]3CO)ccn12 to CNC[C@H]1CCCN1C(=O)c1cc2ccc(C)cc2nc1C, the Z score falls from 0.96 to -0.07.

Compared with CC1(C)C[C@@]1(NC(=O)NC1CCC(OC(F)F)CC1)c1ccccc1 (stereo partly drawn), O=C(CCCc1ccccc1)N1CCC(n2cnnc2C2CC2)CC1 is lower in Z score: 1.12 for the first, 0.75 for the second.

Going from CC(=O)Nc1ccc(S(=O)(=O)N2CCOC3(CCOCC3)C2)cc1 to CC(=O)Nc1nc(C(=O)N2CC3(CCOCC3)[C@@H]2C2CC2)cs1, the Z score rises from -0.99 to 0.31.

First: COc1cccc(S(=O)(=O)N2CCc3nc(NC(=O)c4ccc(F)c(F)c4)sc3C2)c1
Second: O=C(c1nc2ccccc2s1)N1CCC[C@H](c2cc(F)ccc2F)C1
The Z score of the first is lower: -0.51 for the first, 2.13 for the second.

First: Cc1cc(C(=O)N2CC(C(=O)Nc3ncc(C)s3)C2)no1
Second: CC[C@@H](COC)Nc1ncnc2sc(C(=O)N3CCCC3)c(C)c12
The Z score of the first is lower: -0.47 for the first, 0.09 for the second.

Going from CCc1nc(CN2C(=O)COc3ccc(S(=O)(=O)N4CCN(CC)CC4)cc32)no1 to CCc1nc(CN2CCOCC2)n(-c2ccc(C(F)(F)F)cc2)n1, the Z score rises from 0.31 to 0.94.

Going from COc1ccc(-c2cc(C(=O)N3CCc4[nH]cnc4C3)[nH]n2)cc1 to CC1CCN(C(=O)[C@H]2CCc3ncc(-c4ccc(F)cc4)n3C2)CC1, the Z score rises from 0.46 to 1.27.

Compared with Cc1nc(N(C)C)nc(-c2ccccc2CO)c1C, Cc1ccccc1C(=O)Nc1cc(-c2nnc(C3CC3)o2)sc1C is lower in Z score: 0.26 for the first, 0.2 for the second.

Going from NS(=O)(=O)c1ccc(CCNC(=O)[C@@H]2CCCN3CCCC[C@H]23)cc1 to Cc1ccc(CCNC(=O)c2ccccc2N2CCC(=O)NC2=O)s1, the Z score falls from 0.9 to -0.44.

First: Cc1c2c(=O)n(-c3nc4ccccc4s3)n(Cc3ccc(F)cc3)c2cc(=O)n1CCCN1CCOCC1
Second: CC(C)n1c(=O)c(-c2ccc(C(=O)NCc3ccc(N4CCOCC4)cc3)cc2)nc2cccnc21
The Z score of the first is lower: -3.58 for the first, 0.73 for the second.

Compared with OC[C@H]1CCCN1Cc1nnc(-c2ccc(Br)cc2)o1, OCc1nnc(NCc2ccc(OCc3ccccc3)c(OCc3ccccc3)c2)o1 is higher in Z score: -1.09 for the first, 1.22 for the second.

First: Cn1cccc1-c1cc2n(n1)CCC(=O)N2CCCC(=O)NCCN1CCOCC1
Second: CN(CCn1ccnc1)Cc1noc2c1CCCC2
The Z score of the first is higher: 1.59 for the first, -0.15 for the second.

Compared with CN1C[C@@H](c2nc(Cn3cc(Br)cn3)no2)NCC1=O, Cc1nc(-c2cnn(C)c2)oc1C(=O)NCCS(=O)(=O)C(C)C is lower in Z score: 1.45 for the first, 0.6 for the second.

First: CCN(C(=O)c1cccc(-c2cc(F)ccc2C(C)=O)c1)[C@H]1COC[C@@H]1O
Second: COc1ccccc1NC(=O)C1C(=O)NC23CCCCC2C1c1ccccc1O3 (stereo not drawn)
The Z score of the first is lower: 1 for the first, 1.04 for the second.

Compared with CCN(CC)c1nc(N)cc(N2CC[C@@H](O)C2)n1, Cc1ccc(NC(=O)CCOC2CCOCC2)c(C)n1 is lower in Z score: 2.46 for the first, 0.54 for the second.

First: CC1=NO[C@@H](CNS(=O)(=O)c2cc(F)cc(Cl)c2)C1
Second: CC(C)C1=NO[C@H](C(=O)NCCNS(C)(=O)=O)C1
The Z score of the first is lower: -1.12 for the first, 0.1 for the second.

First: CC[C@H](NCc1sccc1Cl)c1c(C)nn(C)c1C
Second: CCNC(=O)[C@@H]1CC[C@](C)(C(=O)NCCn2cnnn2)C1(C)C
The Z score of the first is lower: -1.5 for the first, 0.21 for the second.

First: Cc1[nH]ncc1C(=O)N1CCC(F)(F)C1
Second: O=C(N[C@H](c1ncccn1)C1CC1)c1ccc(OC(F)F)cc1F
The Z score of the first is higher: 2.09 for the first, 1.44 for the second.
